{"source": "paper PMC9911399", "about": "“Two distinct binding modes provide the RNA-binding protein RbFox with extraordinary sequence specificity”", "binders": {"B1": {"name": "UUCUAUG (DNA:RNA)", "RNA": "GGGAGACCGGAAUUCAGAUUGUCCUUCUAUGUUAAAUCCCGUCGUAGCCACCA", "DNA 1": "CAATCTGAATTCCGGTCTCCC", "DNA 2": "TGGTGGCTACGACGGGATT"}, "B2": {"name": "UCCAAUU (DNA:RNA)", "RNA": "B1 RNA with U26C, U28A, G31U", "DNA 1": "CAATCTGAATTCCGGTCTCCC", "DNA 2": "TGGTGGCTACGACGGGATT"}, "B3": {"name": "CGUGCUA (DNA:RNA)", "RNA": "B1 RNA with U25C, U26G, C27U, U28G, A29C, G31A", "DNA 1": "CAATCTGAATTCCGGTCTCCC", "DNA 2": "TGGTGGCTACGACGGGATT"}, "B4": {"name": "AGUUAGC (DNA:RNA)", "RNA": "B1 RNA with U25A, U26G, C27U, U30G, G31C", "DNA 1": "CAATCTGAATTCCGGTCTCCC", "DNA 2": "TGGTGGCTACGACGGGATT"}, "B5": {"name": "GCCAAUG (DNA:RNA)", "RNA": "B1 RNA with U25G, U26C, U28A", "DNA 1": "CAATCTGAATTCCGGTCTCCC", "DNA 2": "TGGTGGCTACGACGGGATT"}, "B6": {"name": "GCGCCGU (DNA:RNA)", "RNA": "GGGAGACCGGAAUUCAGAUUGUCCGCGCCGUUUAAAUCCCGUCGUAGCCACCA", "DNA 1": "CAATCTGAATTCCGGTCTCCC", "DNA 2": "TGGTGGCTACGACGGGATT"}, "B7": {"name": "UCCCCUU (DNA:RNA)", "RNA": "B6 RNA with G25U, G27C, G30U", "DNA 1": "CAATCTGAATTCCGGTCTCCC", "DNA 2": "TGGTGGCTACGACGGGATT"}, "B8": {"name": "CAACACA (DNA:RNA)", "RNA": "B6 RNA with G25C, C26A, G27A, C29A, G30C, U31A", "DNA 1": "CAATCTGAATTCCGGTCTCCC", "DNA 2": "TGGTGGCTACGACGGGATT"}, "B9": {"name": "CCCGGUG (DNA:RNA)", "RNA": "B1 RNA with U25C, U26C, U28G, A29G", "DNA 1": "CAATCTGAATTCCGGTCTCCC", "DNA 2": "TGGTGGCTACGACGGGATT"}, "B10": {"name": "UCAGUCA (DNA:RNA)", "RNA": "B6 RNA with G25U, G27A, C28G, C29U, G30C, U31A", "DNA 1": "CAATCTGAATTCCGGTCTCCC", "DNA 2": "TGGTGGCTACGACGGGATT"}, "B11": {"name": "CAUAGUG (DNA:RNA)", "RNA": "B1 RNA with U25C, U26A, C27U, U28A, A29G", "DNA 1": "CAATCTGAATTCCGGTCTCCC", "DNA 2": "TGGTGGCTACGACGGGATT"}, "B12": {"name": "CAAGCGU (DNA:RNA)", "RNA": "B6 RNA with G25C, C26A, G27A, C28G", "DNA 1": "CAATCTGAATTCCGGTCTCCC", "DNA 2": "TGGTGGCTACGACGGGATT"}, "B13": {"name": "UUAAUCA (DNA:RNA)", "RNA": "B1 RNA with C27A, U28A, A29U, U30C, G31A", "DNA 1": "CAATCTGAATTCCGGTCTCCC", "DNA 2": "TGGTGGCTACGACGGGATT"}, "B14": {"name": "CCCCGUA (DNA:RNA)", "RNA": "B6 RNA with G25C, G27C, C29G, G30U, U31A", "DNA 1": "CAATCTGAATTCCGGTCTCCC", "DNA 2": "TGGTGGCTACGACGGGATT"}, "B15": {"name": "UCUGGAA (DNA:RNA)", "RNA": "B6 RNA with G25U, G27U, C28G, C29G, G30A, U31A", "DNA 1": "CAATCTGAATTCCGGTCTCCC", "DNA 2": "TGGTGGCTACGACGGGATT"}, "B16": {"name": "AUAGUUA (DNA:RNA)", "RNA": "B1 RNA with U25A, C27A, U28G, A29U, G31A", "DNA 1": "CAATCTGAATTCCGGTCTCCC", "DNA 2": "TGGTGGCTACGACGGGATT"}, "B17": {"name": "GCGGUUG (DNA:RNA)", "RNA": "B6 RNA with C28G, C29U, G30U, U31G", "DNA 1": "CAATCTGAATTCCGGTCTCCC", "DNA 2": "TGGTGGCTACGACGGGATT"}, "B18": {"name": "CAGGCCC (DNA:RNA)", "RNA": "B6 RNA with G25C, C26A, C28G, G30C, U31C", "DNA 1": "CAATCTGAATTCCGGTCTCCC", "DNA 2": "TGGTGGCTACGACGGGATT"}, "B19": {"name": "GUGCCCU (DNA:RNA)", "RNA": "B6 RNA with C26U, G30C", "DNA 1": "CAATCTGAATTCCGGTCTCCC", "DNA 2": "TGGTGGCTACGACGGGATT"}, "B20": {"name": "CAUACCG (DNA:RNA)", "RNA": "B6 RNA with G25C, C26A, G27U, C28A, G30C, U31G", "DNA 1": "CAATCTGAATTCCGGTCTCCC", "DNA 2": "TGGTGGCTACGACGGGATT"}, "B21": {"name": "CGGGGGG (DNA:RNA)", "RNA": "B6 RNA with G25C, C26G, C28G, C29G, U31G", "DNA 1": "CAATCTGAATTCCGGTCTCCC", "DNA 2": "TGGTGGCTACGACGGGATT"}, "B22": {"name": "AUAACCG (DNA:RNA)", "RNA": "B1 RNA with U25A, C27A, U28A, A29C, U30C", "DNA 1": "CAATCTGAATTCCGGTCTCCC", "DNA 2": "TGGTGGCTACGACGGGATT"}, "B23": {"name": "AUUUAAU (DNA:RNA)", "RNA": "B1 RNA with U25A, C27U, U30A, G31U", "DNA 1": "CAATCTGAATTCCGGTCTCCC", "DNA 2": "TGGTGGCTACGACGGGATT"}, "B24": {"name": "CAUCUAC (DNA:RNA)", "RNA": "B6 RNA with G25C, C26A, G27U, C29U, G30A, U31C", "DNA 1": "CAATCTGAATTCCGGTCTCCC", "DNA 2": "TGGTGGCTACGACGGGATT"}, "B25": {"name": "GCGGAAC (DNA:RNA)", "RNA": "B6 RNA with C28G, C29A, G30A, U31C", "DNA 1": "CAATCTGAATTCCGGTCTCCC", "DNA 2": "TGGTGGCTACGACGGGATT"}, "B26": {"name": "UAGAGCG (DNA:RNA)", "RNA": "B1 RNA with U26A, C27G, U28A, A29G, U30C", "DNA 1": "CAATCTGAATTCCGGTCTCCC", "DNA 2": "TGGTGGCTACGACGGGATT"}, "B27": {"name": "AUGGUCU (DNA:RNA)", "RNA": "B6 RNA with G25A, C26U, C28G, C29U, G30C", "DNA 1": "CAATCTGAATTCCGGTCTCCC", "DNA 2": "TGGTGGCTACGACGGGATT"}, "B28": {"name": "AACUUGA (DNA:RNA)", "RNA": "B1 RNA with U25A, U26A, A29U, U30G, G31A", "DNA 1": "CAATCTGAATTCCGGTCTCCC", "DNA 2": "TGGTGGCTACGACGGGATT"}, "B29": {"name": "UUAGACG (DNA:RNA)", "RNA": "B1 RNA with C27A, U28G, U30C", "DNA 1": "CAATCTGAATTCCGGTCTCCC", "DNA 2": "TGGTGGCTACGACGGGATT"}, "B30": {"name": "CAACUAC (DNA:RNA)", "RNA": "B6 RNA with G25C, C26A, G27A, C29U, G30A, U31C", "DNA 1": "CAATCTGAATTCCGGTCTCCC", "DNA 2": "TGGTGGCTACGACGGGATT"}, "B31": {"name": "CGGUAUU (DNA:RNA)", "RNA": "B1 RNA with U25C, U26G, C27G, G31U", "DNA 1": "CAATCTGAATTCCGGTCTCCC", "DNA 2": "TGGTGGCTACGACGGGATT"}}, "note": "Where a chain is given by its changes, count along the chain named. Some of the results follow.", "data": [{"target": "T1, RBFOX1 RRM RbFoxmut (Fox-RRM*) (Homo sapiens, UniProt Q9NWB1 109-208, R118D;E147R;N151S;E152T)", "T1 sequence": "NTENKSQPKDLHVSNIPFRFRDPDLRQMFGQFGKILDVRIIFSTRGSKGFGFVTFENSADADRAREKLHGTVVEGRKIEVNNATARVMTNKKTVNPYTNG", "experiment": "EMSA; HiTS-Eq, 1 nM pool, 10 min; buffer printed only for the single-RNA assays: 10 mM Tris pH 7.5, 150 mM NaCl, 3.4 mM EDTA, 0.001% NP-40, 30 C", "details": "tags: His6 N-terminal (pET28a); label: 5' 32P", "in_short": "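Purified wild-type or mutant RbFox RRM at increasing concentrations was equilibrated with 1 nM of 5′-radiolabelled RNA carrying 7 randomized nucleotides for 10 min in 50 µL. Unbound RNA was separated by 8% native PAGE and sequenced. Relative association constants came from read-count changes of each RNA species compared with the control reaction, normalised to the cognate motif.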", "values": [{"binder": "B1", "binding signal": "0.136 KA relative to UGCAUGU"}, {"binder": "B2", "binding signal": "0.0578 KA relative to UGCAUGU"}, {"binder": "B3", "binding signal": "0.114 KA relative to UGCAUGU"}, {"binder": "B4", "binding signal": "0.112 KA relative to UGCAUGU"}, {"binder": "B5", "binding signal": "0.0766 KA relative to UGCAUGU"}, {"binder": "B6", "binding signal": "0.0953 KA relative to UGCAUGU"}, {"binder": "B7", "binding signal": "0.0629 KA relative to UGCAUGU"}, {"binder": "B8", "binding signal": "0.117 KA relative to UGCAUGU"}, {"binder": "B9", "binding signal": "0.112 KA relative to UGCAUGU"}, {"binder": "B10", "binding signal": "0.0938 KA relative to UGCAUGU"}, {"binder": "B11", "binding signal": "0.108 KA relative to UGCAUGU"}, {"binder": "B12", "binding signal": "0.0877 KA relative to UGCAUGU"}, {"binder": "B13", "binding signal": "0.093 KA relative to UGCAUGU"}, {"binder": "B14", "binding signal": "0.116 KA relative to UGCAUGU"}, {"binder": "B15", "binding signal": "0.0942 KA relative to UGCAUGU"}, {"binder": "B16", "binding signal": "0.158 KA relative to UGCAUGU"}, {"binder": "B17", "binding signal": "0.319 KA relative to UGCAUGU"}, {"binder": "B18", "binding signal": "0.068 KA relative to UGCAUGU"}, {"binder": "B19", "binding signal": "0.0594 KA relative to UGCAUGU"}, {"binder": "B20", "binding signal": "0.127 KA relative to UGCAUGU"}, {"binder": "B21", "binding signal": "0.0805 KA relative to UGCAUGU"}, {"binder": "B22", "binding signal": "0.159 KA relative to UGCAUGU"}, {"binder": "B23", "binding signal": "0.0921 KA relative to UGCAUGU"}, {"binder": "B24", "binding signal": "0.105 KA relative to UGCAUGU"}, {"binder": "B25", "binding signal": "0.0741 KA relative to UGCAUGU"}, {"binder": "B26", "binding signal": "0.111 KA relative to UGCAUGU"}, {"binder": "B27", "binding signal": "0.095 KA relative to UGCAUGU"}, {"binder": "B28", "binding signal": "0.0966 KA relative to UGCAUGU"}, {"binder": "B29", "binding signal": "0.0693 KA relative to UGCAUGU"}, {"binder": "B30", "binding signal": "0.0756 KA relative to UGCAUGU"}, {"binder": "B31", "binding signal": "0.11 KA relative to UGCAUGU"}]}]}
